SMILES strings stand for the structures. About 540 (0.36%) of roughly 150,000 compounds showed an effect of 50% or more. Some of the results follow.

22 compounds from ChEMBL document CHEMBL4888484, “Replenishing the malaria drug discovery pipeline: Screening and hit evaluation of the MMV Hit Generation Library 1 (HGL1) against asexual blood stage Plasmodium falciparum ,using a nano luciferase reporter read-out” (2022) can be followed below.

The test system of the assay is Plasmodium falciparum. Briefly: Primary screen in NF54 nanoGlo assay, in single point, at 2uM, 72h; a lower Z score goes with more inhibition. The format is functional, Erythrocyte. The following applies: timepoint 72 hour.
Turning to `C[C@H](CCC(=O)N(C)Cc1ccccc1)[C@H]1CC[C@H]2[C@@H]3CC[C@@H]4C[C@H](O)CC[C@]4(C)[C@H]3C[C@H](O)[C@]12C`, the “% Inhibition” value was -4% and the Z score is recorded as 0.57.

For `Cc1cscc1-c1noc([C@@H]2COCCO2)n1`, the “% Inhibition” value was -1% and the Z score is recorded as 0.15.

As to `OC[C@H]1CN(Cc2ccc(F)cn2)CCN1Cc1ccc(F)cn1`, the “% Inhibition” value is recorded as -9% and the Z score is 1.45.

For `COC(=O)C1(N(C)C(=O)[C@H](C)S(=O)(=O)C(C)C)CCCC1`, the “% Inhibition” value came to 3% and the Z score is listed as -0.32.

Regarding `Fc1cccc(F)c1-c1nc(CN(Cc2ccccn2)C2CC2)co1`, the “% Inhibition” value is on record as -7% and the Z score is given as 0.76.

On to `COc1cc2c(cc1CNC(=O)c1ccco1)OCCCO2`, for which the “% Inhibition” value is on record as -16% and the Z score turned out to be 2.2.

`COc1ccccc1NC(=O)c1ccc(-c2noc(C3CCCC3)n2)cc1`: the “% Inhibition” value is -8% and the Z score is given as 1.43.

Regarding `CCN(C(=O)c1nnn(Cc2cc(C)no2)c1C)[C@@H](C)C(F)(F)F`, the “% Inhibition” value was -3% and the Z score is given as 0.56.

Turning to `Cc1cc2ncn(-c3cc(C(=O)O)cc(S(=O)(=O)N4CCOCC4)c3)c2cc1C`, the “% Inhibition” value is reported as -1% and the Z score came out at 0.17.

With `CC[C@@](C)(C(=O)NC1CCCC1)N(C(C)=O)c1ccc(C)cc1`, the “% Inhibition” value is -4% and the Z score was 0.81.

Turning to `Cc1cccc(Cn2c(=O)c(C(=O)NCc3ccccn3)nn(-c3cccc(F)c3)c2=O)c1`, the “% Inhibition” value is reported as -2% and the Z score amounted to 0.21.

Take `c1cc(OCCO[C@@H]2CCCCO2)cc(-n2ccnn2)c1`: the “% Inhibition” value is reported as -9% and the Z score stood at 0.92.

In the case of `CCc1c[nH]c2ncnc(NCc3cccc(CO)n3)c12`, the “% Inhibition” value is reported as -8% and the Z score was found to be 1.3.

For `COc1c(C)cnc(CN2CC[C@]3(CCCO3)CCC2=O)c1C`, the “% Inhibition” value is -15% and the Z score was determined as 1.86.

As for `C[C@H]1Cc2cc(-n3ccnc3-c3cc4n(n3)CCCNC4)ccc2O1`, the “% Inhibition” value turned out to be 0% and the Z score is reported as 0.07.

Turning to `COC(=O)c1nc(NC(=O)c2cccnc2)sc1-c1ccccc1Cl`, the “% Inhibition” value is -10% and the Z score was found to be 1.44.

As to `CS(=O)(=O)c1ccc(C2(c3nc([C@H]4CCOC4)no3)CCC2)cc1`, the “% Inhibition” value was -8% and the Z score turned out to be 1.29.

As for `Cc1cc(C#N)nc(N2CC(C)(C)OC[C@@H]2C)n1`, the “% Inhibition” value was -8% and the Z score worked out at 1.47.

As to `O=C(O)C1C2C=CC(C2)C1C(=O)N1CCN(c2cccc(Cl)c2)CC1` (centres undefined), the “% Inhibition” value amounted to 4% and the Z score was -0.51.

As for `CN(Cc1nnc2n1CCC2)C(=O)C1=Cc2ccccc2OC1`, the “% Inhibition” value was -45% and the Z score is given as 5.33.

Turning to `O=C(NCc1cccc(C(F)(F)F)c1)c1cc2n(n1)CCN(Cc1ccc(C(F)(F)F)cc1)C2=O`, the “% Inhibition” value is recorded as -8% and the Z score was found to be 1.34.

Take `COc1ccc2cc(C(=O)N3CCC(CC(=O)NCC[C@H](C)N4CCCC4)CC3)[nH]c2c1`: the “% Inhibition” value is recorded as -18% and the Z score is reported as 1.69.

Usually % Inhibition stands for the change of the read-out against control, counted positive when it falls.
